Source: the supplement of paper PMC4604168 (melanoma cell lines)
The list shows a part of the results. Many values rest on one well or one pass, so single values are uncertain.

Columns and labels:
Experiment in all cases: cell count relative to DMSO control; melanoma cells; higher = more viable cells
Conditions in all cases: library dose: standard library concentration; 72 h
G361 = tested on: G361
IPC-298 = tested on: IPC-298
IST-MEL1 = tested on: IST-MEL1
LB2518-MEL = tested on: LB2518-MEL
LOXIMVI = tested on: LOXIMVI
MEL-HO = tested on: MEL-HO
MZ2-MEL = tested on: MZ2-MEL
MeWo = tested on: MeWo
RPMI7951 = tested on: RPMI7951
RVH-421 = tested on: RVH-421
SkMel28 = tested on: SkMel28
SkMel2 = tested on: SkMel2
SkMel30 = tested on: SkMel30
SkMel5 = tested on: SkMel5
UACC257 = tested on: UACC257
UACC62 = tested on: UACC62
WM115 = tested on: WM115
WM1716 = tested on: WM1716
WM1745 = tested on: WM1745
WM3526 = tested on: WM3526
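Further: cells treated in 1,536-well plates, then fixed and DAPI-stained, with nuclei counted from automated high-throughput microscope images.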

| SMILES | cell count (G361) | cell count (IPC-298) | cell count (IST-MEL1) | cell count (LB2518-MEL) | cell count (LOXIMVI) | cell count (MEL-HO) | cell count (MZ2-MEL) | cell count (MeWo) | cell count (RPMI7951) | cell count (RVH-421) | cell count (SkMel28) | cell count (SkMel2) | cell count (SkMel30) | cell count (SkMel5) | cell count (UACC257) | cell count (UACC62) | cell count (WM115) | cell count (WM1716) | cell count (WM1745) | cell count (WM3526) |
| --- | --- | --- | --- | --- | --- | --- | --- | --- | --- | --- | --- | --- | --- | --- | --- | --- | --- | --- | --- | --- |
| CN(NC(=O)CC(=O)NN(C)C(=S)c1ccccc1)C(=S)c1ccccc1 + O=C1NC(=O)/C(=C/c2ccc(-c3ccc(F)cc3O)o2)S1 [AS252424] (first compound 0.03 µM, partner dose 5 µM) | 62.8% | 77.3% | 60.8% | 61.6% | 97.8% | 72.6% | 92.7% | 28.7% | 93.3% | 92% | 4.66% | 91.3% | 79.8% | 47.5% | 90.5% | 51.9% | 24.5% | 90.8% | 49.8% | 85.7% |
| CCCCCCCCc1ccc(CCC(N)(CO)CO)cc1 [fingolimod] + Nc1ccn([C@@H]2O[C@H](CO)[C@@H](O)C2(F)F)c(=O)n1 [gemcitabine] (first compound 10 µM, partner dose 0.002 µM) | 13.3% | 47.6% | 6.09% | 30.7% | 21.8% | 29.7% | 61.7% | 29.6% | 1.04% | 28.3% | 13.7% | 56% | 26.3% | 66.3% | 77.8% | 31.5% | 34.1% | 43.1% | 49.4% | 43.8% |
| CC(C)(C)c1cnc(CSc2cnc(NC(=O)C3CCNCC3)s2)o1 + Cc1cc(N2CCOCC2)cc2[nH]c(-c3c(NC[C@@H](O)c4cccc(Cl)c4)cc[nH]c3=O)nc12 [BMS536924] (first compound 0.05 µM, partner dose 1 µM) | 90.6% | 118% | 81.3% | 72.3% | 55.1% | 84.1% | 92.2% | 73.1% | 43.9% | 97.9% | 55.6% | 61.8% | 83.8% | 53.4% | 95.9% | 67.3% | 92.8% | 97.3% | 48.9% | 77.1% |
| CCCCCCCCc1ccc(CCC(N)(CO)CO)cc1 [fingolimod] + COc1cc(Nc2ncc(F)c(Nc3ccc4c(n3)NC(=O)C(C)(C)O4)n2)cc(OC)c1OC [Tamatinib] (first compound 10 µM, partner dose 2 µM) | 1.56% | 67.1% | 5.5% | 1.12% | 0.966% | 1.14% | 5.73% | 8.08% | 1.24% | 6.74% | 0.957% | 3.02% | 15.5% | 29.4% | 48.6% | 14.6% | 9.06% | 16.4% | 4.36% | 13.3% |
| CC(C)(C)c1cnc(CSc2cnc(NC(=O)C3CCNCC3)s2)o1 + NC(=O)Nc1cc(-c2cccc(F)c2)sc1C(=O)N[C@H]1CCCNC1 [AZD7762] (first compound 0.05 µM, partner dose 0.1 µM) | 93.1% | 96.3% | 86.3% | 76.9% | 55.5% | 86.7% | 89.8% | 66.7% | 34.4% | 104% | 43.4% | 84.5% | 90.8% | 67% | 99.1% | 60.5% | 76.3% | 65.9% | 69% | 60% |
| Cc1ccc(NC(=O)c2cccc(N(C)C)c2)cc1NC(=O)c1ccc(O)cc1 + COc1ccc2c(c1)CCC1C2CCC2(C)C(NCCCCCCN3C(=O)C=CC3=O)CCC12 [U73122] (first compound 10 µM, partner dose 2 µM) | 77.5% | 102% | 102% | 57% | 75.4% | 86.4% | 83.5% | 65.6% | 57.5% | 100% | 83.8% | 106% | 117% | 56.3% | 89.5% | 76.3% | 74.6% | 101% | 68.1% | 107% |
| CN(NC(=O)CC(=O)NN(C)C(=S)c1ccccc1)C(=S)c1ccccc1 + COC(=O)c1sccc1S(=O)(=O)Nc1ccc(Nc2ccccc2)cc1OC [GSK0660] (first compound 0.03 µM, partner dose 5 µM) | 43.5% | 73.6% | 42.1% | 0.877% | 94% | 83.5% | 102% | 22.2% | 80.3% | 66.2% | 24.5% | 60.3% | 96% | 44.1% | 76% | 93.1% | 28.3% | 84.8% | 32.7% | 80.1% |
| CN(NC(=O)CC(=O)NN(C)C(=S)c1ccccc1)C(=S)c1ccccc1 + COc1cc2ncnc(Nc3ccc(Oc4ccccc4)cc3)c2cc1OC [SrcI1] (first compound 0.03 µM, partner dose 10 µM) | 21.4% | 54.5% | 41% | 21% | 78.4% | 67.5% | 65.7% | 14.2% | 59.4% | 65% | 3.45% | 56.1% | 76.6% | 30.4% | 106% | 38.5% | 20.1% | 61% | 32.9% | 63.1% |
| CC(C)(C)c1cnc(CSc2cnc(NC(=O)C3CCNCC3)s2)o1 + O=C1NC(=O)/C(=C/c2ccc(-c3ccc(F)cc3O)o2)S1 [AS252424] (first compound 0.05 µM, partner dose 5 µM) | 99.1% | 90.7% | 107% | 76.3% | 84.2% | 87.6% | 96% | 95.1% | 57.7% | 92.5% | 82.4% | 78.4% | 108% | 72.8% | 94.3% | 83.5% | 77.1% | 70.9% | 66.8% | 73.9% |
| NC(=O)c1ccc(N(C(N)=O)c2c(F)cccc2F)nc1-c1ccc(F)cc1F + C=CCn1c(=O)c2cnc(Nc3ccc(N4CCN(C)CC4)cc3)nc2n1-c1cccc(C(C)(C)O)n1 [MK1775] (first compound 2 µM, partner dose 0.1 µM) | 80.4% | 95.1% | 79.6% | 73.7% | 81% | 102% | 118% | 76.5% | 62.3% | 89.5% | 59% | 85% | 72.5% | 52.6% | 77.4% | 68.3% | 64.4% | 89.4% | 59.9% | 65% |
| CCCCCCCCc1ccc(CCC(N)(CO)CO)cc1 [fingolimod] + C[C@@H](Oc1cc(-c2cnn(C3CCNCC3)c2)cnc1N)c1c(Cl)ccc(F)c1Cl [Crizotinib] (first compound 10 µM, partner dose 1 µM) | 0.382% | 3.6% | 8.8% | 0.226% | 24.2% | 5.97% | 1.67% | 11% | 0.892% | 3.58% | 0.507% | 0.108% | 13.7% | 53.8% | 64.3% | 20.1% | 26.1% | 48.9% | 4.46% | 60.4% |
| Cc1ccc(NC(=O)c2cccc(N(C)C)c2)cc1NC(=O)c1ccc(O)cc1 + c1cc(-c2cnn3cc(-c4ccc(OCCN5CCCCC5)cc4)cnc23)ccn1 [Dorsomorphin] (first compound 10 µM, partner dose 2 µM) | 82.8% | 87.4% | 86.1% | 41% | 87.5% | 71.8% | 64.2% | 89% | 92.5% | 84% | 66.4% | 81.1% | 90.2% | 75.2% | 101% | 100% | 90.7% | 113% | 49.7% | 81.1% |
| CCc1ccc(CCOc2ccc(CC3SC(=O)NC3=O)cc2)nc1 (stereo not given) [pioglitazone] + COc1ccc(-c2ccc3c(N4CCOCC4)nc(N4C[C@@H](C)O[C@@H](C)C4)nc3n2)cc1CO [KU0063794] (first compound 10 µM, partner dose 0.1 µM) | 89.7% | 60.6% | 96% | 86.8% | 108% | 81.7% | 32.4% | 85.3% | 73.2% | 125% | 53.3% | 96.3% | 86.7% | 71.1% | 87.4% | 101% | 96.4% | 120% | 85.7% | 78% |
| CN(NC(=O)CC(=O)NN(C)C(=S)c1ccccc1)C(=S)c1ccccc1 + COc1cc2c(Oc3ccc4[nH]c(C)cc4c3F)ncnc2cc1OCCCN1CCCC1 [cediranib] (first compound 0.03 µM, partner dose 2 µM) | 34.3% | 85.4% | 30.3% | 32.1% | 62.2% | 88.6% | 102% | 16.9% | 58.7% | 50.8% | 37.8% | 80.7% | 99% | 43.4% | 108% | 47% | 17.7% | 91.7% | 31% | 81.7% |
| CCCCCCCCc1ccc(CCC(N)(CO)CO)cc1 [fingolimod] + CN(C)S(=O)(=O)c1ccc2c(c1)/C(=C/c1cc3c([nH]1)CCCC3)C(=O)N2 [SU6656] (first compound 10 µM, partner dose 2 µM) | 0.802% | 16% | 9.47% | 0.171% | 11.8% | 6.26% | 2.42% | 11.5% | 2.31% | 14.7% | 0.225% | 0.0905% | 7.06% | 38.7% | 51.7% | 19.2% | 5.02% | 23.5% | 7.85% | 21.5% |
| CCCCCCCCc1ccc(CCC(N)(CO)CO)cc1 [fingolimod] + CC(C)C[C@H](NC(=O)[C@H](Cc1ccccc1)NC(=O)c1cnccn1)B(O)O [Bortezomib] (first compound 10 µM, partner dose 0.005 µM) | 1.54% | 5.38% | 9.52% | 0.795% | 23.1% | 1.14% | 0.731% | 8.27% | 0.311% | 2.23% | 1.84% | 0.867% | 6.06% | 20.7% | 69.2% | 15.5% | 14.8% | 10.3% | 4.54% | 16% |
| CCCCCCCCc1ccc(CCC(N)(CO)CO)cc1 [fingolimod] + Nc1nc(F)nc2c1ncn2[C@@H]1O[C@H](CO)[C@@H](O)[C@@H]1O [fludarabine] (first compound 10 µM, partner dose 1 µM) | 1.25% | 26.1% | 11.6% | 0.361% | 30.8% | 10.1% | 1.13% | 6.7% | 1.5% | 5.03% | 1.6% | 0.101% | 5.86% | 25% | 25.7% | 4.73% | 7.82% | 24% | 3.41% | 9.31% |
| CCCCCCCCc1ccc(CCC(N)(CO)CO)cc1 [fingolimod] + C=CCn1c(=O)c2cnc(Nc3ccc(N4CCN(C)CC4)cc3)nc2n1-c1cccc(C(C)(C)O)n1 [MK1775] (first compound 10 µM, partner dose 0.1 µM) | 0.775% | 34.4% | 5.7% | 0.393% | 4.42% | 10.2% | 3.46% | 12.7% | 7.06% | 8.33% | 0.59% | 0.116% | 10.5% | 38.5% | 44% | 10.3% | 15.2% | 52.2% | 9.49% | 18.7% |
